Paper PMC6919601, “Identification of Plasmodium dipeptidyl aminopeptidase allosteric inhibitors by high throughput screening” (PLoS ONE, 2019)
Screen size: about 110,000 compounds; about 230 (0.21%) showed an effect of 50% or more. This is one part of the list.

What follows are compounds tested against DPAP1 (Plasmodium falciparum, UniProt Q8IIJ9) (assay: primary screen, percent inhibition; read by cleavage of a fluorogenic dipeptide substrate; higher = more effect of the substance).
Parameters: species or system P. falciparum D10 trophozoite lysates; single well
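Also: 30 min substrate incubation versus DMSO and 10 µM JCP410 controls.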

Chain of DPAP1 (Q8IIJ9 whole entry, looked up): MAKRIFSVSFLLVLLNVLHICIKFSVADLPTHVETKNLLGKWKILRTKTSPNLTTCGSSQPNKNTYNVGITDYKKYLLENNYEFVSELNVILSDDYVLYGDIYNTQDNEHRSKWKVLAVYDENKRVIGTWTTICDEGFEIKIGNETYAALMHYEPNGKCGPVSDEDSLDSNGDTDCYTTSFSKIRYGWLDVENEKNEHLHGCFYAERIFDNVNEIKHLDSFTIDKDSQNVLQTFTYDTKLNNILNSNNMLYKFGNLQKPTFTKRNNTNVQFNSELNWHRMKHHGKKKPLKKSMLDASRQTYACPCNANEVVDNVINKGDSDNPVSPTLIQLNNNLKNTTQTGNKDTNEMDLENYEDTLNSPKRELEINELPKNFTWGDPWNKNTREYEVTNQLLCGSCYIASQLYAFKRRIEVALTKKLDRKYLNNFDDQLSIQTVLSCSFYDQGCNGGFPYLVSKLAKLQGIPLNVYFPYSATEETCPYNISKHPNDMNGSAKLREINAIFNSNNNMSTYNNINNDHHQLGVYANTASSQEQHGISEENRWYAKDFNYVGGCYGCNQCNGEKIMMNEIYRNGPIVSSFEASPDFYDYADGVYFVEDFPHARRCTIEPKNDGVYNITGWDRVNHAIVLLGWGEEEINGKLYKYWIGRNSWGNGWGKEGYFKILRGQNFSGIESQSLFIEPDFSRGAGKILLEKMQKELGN

Row | Structure (SMILES) | % Inhibition @ 10 uM [%]
1 | O=C(CN(c1ccccc1)S(=O)(=O)c1ccccc1)NC1CC2CCC1C2 (stereo not drawn) | -2.03
2 | Cc1ccc2c(c1)cc1c(=O)n(CC(=O)NCCC3=CCCCC3)nc(C)n12 | 4.84
3 | CCOC(=O)/C(=N\OC)c1cn2cc(Br)ccc2n1 | 2.09
4 | Cc1cc(NC(=O)CN2CCN(c3ccccc3C)CC2)no1 | -3.37
5 | CC(C)(C)C1CCC(N2CCN(CCOCCO)CC2)CC1 (stereo not drawn) | -0.0908
6 | O=C(COc1ccc(S(=O)(=O)N2CCCC2)cc1)Nc1ccc(Cl)c(C(F)(F)F)c1 | -0.795
7 | O=C(O)COc1ccc(/C=C2/NC(=O)N(Cc3ccc(F)cc3)C2=O)cc1Br | -1.38
8 | Cc1ccnc(NC(=O)c2nn(C)c3c2CSc2ccccc2-3)c1 | 0.00665
9 | CCc1nc2ccccc2c(NC(=O)CN2CCOCC2)c1C | -6.6
10 | Cc1ccccc1OCC(O)Cn1c(SCCO)nc2c1c(=O)[nH]c(=O)n2C (stereo not drawn) | 1.8
11 | Cc1nc2c(c(C)nn2C(C)(C)C)c(C)c1CCC(=O)N1CCN(Cc2ccccc2)CC1 | -6.09
12 | Cc1cc(NC(=O)c2cc3ccccc3c(=O)o2)no1 | -1.52
13 | O=C(NCc1ccc(F)cc1)c1cc2n(n1)C(C(F)(F)F)CC(C1CC1)N2 (stereo not drawn) | -1.1
14 | O=C(CCNS(=O)(=O)c1ccc2nc(O)ccc2c1)NCc1ccco1 | -2.84
15 | O=C1C(=O)N(CN2CCOCC2)c2ccccc21 | 1.29
16 | CCOC(=O)Nc1ccc2c(c1)N(C(=O)C(C)N1CCCCC1)c1ccccc1CC2 (stereo not drawn) | -4.26
17 | CCCCN1COc2ccc3c4c(c(=O)oc3c2C1)CCCC4 | 0.0654
18 | NC(=O)C1(N2CCCCC2)CCN(c2c(-c3ccccc3)c(=O)c2=O)CC1 | 2.47
19 | CCOc1ccc(C(=O)NCc2ccc(Cl)cc2)cc1 | -2.17
20 | CCOC(=O)C1=CN(C)C=C(C(=O)OCC)C1c1ccc(OC)cc1 | -1.48
21 | CCN(CC)S(=O)(=O)c1ccc(Sc2ccc(Br)cc2)c(C(=O)O)c1 | -1.69
22 | CC1=NN2C(=N)/C(=C/c3ccc(OCCOc4ccccc4Cl)cc3)C(=O)N=C2S1 | 0.484
23 | Sc1nnc(-c2ccccc2)n1C1CCCCC1 | 13.2
24 | Cc1ccc2occ(CN3CCC(N4CCCCC4)CC3)c(=O)c2c1 | -0.0648
25 | CCN(CC)CCCNC(=O)c1ccccc1C | 2.46
26 | N#Cc1cn(CC(=O)NCc2ccc3c(c2)OCO3)c2ccccc12 | -8.3

Row | Structure (SMILES) | % Inhibition @ 10 uM [%]
27 | CC(C)C(=O)Nc1ccc(NC(=O)c2cc3ccccc3o2)cc1 | -4.12
28 | Cc1ccccc1Cn1cc(SCC(=O)NCc2ccco2)c2ccccc21 | 1.17
29 | CCOc1ccc(NC(=O)C2CC(=O)N(c3ccc(C)cc3)C2)cc1 (stereo not drawn) | -0.28
30 | CCN(CC)CCCNC(=O)c1cc(-c2ccc(Cl)cc2)on1 | -2.65
31 | Cc1ccc(Cn2c(C)c(CNC(C)CCc3ccccc3)c(C(=O)O)c2C)cc1 (stereo not drawn) | -0.23
32 | Cc1cc(-c2ccc(Br)cc2)c(C#N)c(N)n1 | 2.05
33 | CCc1c(C)sc(NC(=O)C2c3ccccc3Oc3ccccc32)c1C(N)=O | -4.41
34 | CN(C)c1ccc(CN2CCCCCCC2)cc1 | 2.47
35 | CCCCNC(=O)Cn1ccc2ccccc2c1=O | -2.4
36 | COc1ccc(C2C=C(C)Nc3nc(SC)nn32)cc1 (stereo not drawn) | -1.62
37 | Cn1c2ccccc2n2nc3ncnc(O)c3c12 | -0.597
38 | COc1cc(/C=C2/SC(Nc3ccccc3F)=NC2=O)ccc1OCC(=O)O | 1.8
39 | CC(=O)N[C@@H](Cc1cc(I)c(O)c(I)c1)C(=O)NCC#N | 3.19
40 | CCCNC(=O)N(Cc1nc(-c2ccc(OC)cc2)no1)C1CCCCC1 | 0.00706
41 | CC1=CC(=C2C(=O)c3ccccc3C2=O)C=C(C)N1CCO | 0.343
42 | O=C(O)CNC(=O)/C(=C/c1ccccc1)NC(=O)c1ccc(Br)o1 | 4
43 | C=CCNC(=O)c1cnn2c(C(F)F)cc(-c3ccc(OC)cc3)nc12 | -4.31
44 | CCN(CC)Cc1c[nH]c2c(C(=O)OC)cccc12 | 1.74
45 | CNC(=O)CCc1ccc(S(=O)(=O)NCC(C)C)cc1 | 0.727
46 | O=C(Cn1ncn2nc(-c3cccs3)cc2c1=O)NCc1cccc(Cl)c1 | -4.68
47 | CC1(C)CC(/N=c2\cc(-c3ccccc3)oc3ccc(Cl)cc23)CC(C)(C)N1 | 2.24
48 | CSc1ccccc1-c1cccc(C(=O)N[C@@H](CC(C)C)C(=O)NCC#N)c1 | -6.98
49 | CC(=O)N1CCN(C2CC3CCC2C3)CC1 (stereo not drawn) | -1.81
50 | C=CCNC(=O)/C(C#N)=C/c1c(Oc2ccc(Cl)c(C)c2)nc2ccccn2c1=O | -2.92
51 | Cc1cccn2c(=O)c3cc(S(=O)(=O)c4ccc(Cl)cc4)c(=N)n(CC4CCCO4)c3nc12 (stereo not drawn) | -3.33
